The list shows a part of the results. Values were computed here from the reads of four pooled replicates and scatter widely.

The assay has as its target T1, Pho4 (S. cerevisiae) (UniProt P07270).
T1 sequence: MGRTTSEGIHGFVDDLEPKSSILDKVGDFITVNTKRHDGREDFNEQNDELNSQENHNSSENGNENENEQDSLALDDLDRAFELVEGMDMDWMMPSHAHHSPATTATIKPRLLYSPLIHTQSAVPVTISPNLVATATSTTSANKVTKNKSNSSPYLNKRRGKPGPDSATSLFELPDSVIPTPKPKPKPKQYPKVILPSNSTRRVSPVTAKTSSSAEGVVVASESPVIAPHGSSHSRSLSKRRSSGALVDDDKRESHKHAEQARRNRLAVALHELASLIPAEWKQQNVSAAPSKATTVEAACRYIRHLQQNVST
Description: relative binding free energy (BET-seq); higher = weaker binding. The note with it: reference: library average.
In the case of CTGGTCACGTGTTCGG, the “relative binding free energy” value was 0.1 kcal/mol.
Turning to GGTTTCACGTGGAGAG, the “relative binding free energy” value is 0.23 kcal/mol.
TTGGGCACGTGCTTGA: the “relative binding free energy” value was -0.2 kcal/mol.
Next, GTCGACACGTGTGATG: 0.16 kcal/mol; TCTTACACGTGTTTGA: 0.2 kcal/mol; GGGAACACGTGGTTTT: 0.11 kcal/mol.
Next, TAATGCACGTGGGCGG: -0.12 kcal/mol; TAATACACGTGTTGGG: 0 kcal/mol.
For GTTCGCACGTGGGATT, the “relative binding free energy” value is 0 kcal/mol.
Next, GTGTTCACGTGCTATG: 0.15 kcal/mol; GTCAGCACGTGCGGGG: 0 kcal/mol; GTGGGCACGTGGCCAG: -0.25 kcal/mol.
For GGATGCACGTGGGAGA the value was 0.12 kcal/mol; for AGAGGCACGTGCGGGT, -0.14 kcal/mol; for ACGTTCACGTGTGGCT, 0.11 kcal/mol.
Take TTAATCACGTGATCTT: the “relative binding free energy” value was found to be 0.19 kcal/mol.
For CGTAGCACGTGGATGG the value was -0.16 kcal/mol; for CAGTCCACGTGTGTGT, 0.12 kcal/mol; for TAGTGCACGTGTATTA, -0.04 kcal/mol.
For TTAAGCACGTGTTGTG the value was -0.11 kcal/mol.
On to TTGGGCACGTGTGGCG, for which the “relative binding free energy” value was -0.09 kcal/mol.
Next, GGGTGCACGTGATGGT: 0.2 kcal/mol.
Turning to TAAGGCACGTGGTTAA, the “relative binding free energy” value is -0.12 kcal/mol.
For ACTTGCACGTGTTTAA the value was 0.11 kcal/mol; for AGGCGCACGTGTGGGG, 0.02 kcal/mol; for AAGATCACGTGCTGTG, 0.08 kcal/mol.
Next, TTGATCACGTGCTTGA: 0.04 kcal/mol.
For the sequence TGTGGCACGTGAGCAA, the “relative binding free energy” value turned out to be 0.07 kcal/mol.
Next, TACATCACGTGTTGGG: 0 kcal/mol; TTGCTCACGTGGTCAG: 0.16 kcal/mol.
As for ATGGTCACGTGGGCGA, the “relative binding free energy” value was -0.08 kcal/mol.
Next, AGTGGCACGTGGTATT: -0.22 kcal/mol; CTTTGCACGTGTATGT: -0.04 kcal/mol; GGCTTCACGTGTTTTC: 0.42 kcal/mol.
Next, AGGATCACGTGTCTTG: 0.3 kcal/mol; AGGTTCACGTGAATAG: 0.28 kcal/mol; CGTATCACGTGGCGGG: 0.02 kcal/mol.
Next, GCGTACACGTGGTAGT: 0.02 kcal/mol; GGTTTCACGTGTATTG: 0.33 kcal/mol.
TCTTTCACGTGGGTAG: the “relative binding free energy” value amounted to 0.07 kcal/mol.
Next, GTTTACACGTGATTGA: 0.24 kcal/mol; TGATTCACGTGAGGAG: 0.45 kcal/mol.
Next, GGGGACACGTGCGTAT: 0.05 kcal/mol; TATTTCACGTGTGAAG: 0.34 kcal/mol.
Next, TAAGTCACGTGGGTTA: -0.02 kcal/mol.
For the sequence TAGTTCACGTGACGTT, the “relative binding free energy” value was found to be 0.31 kcal/mol.
Next, TATCTCACGTGTGGTT: 0.09 kcal/mol.
For TGGTGCACGTGTCAGT the value was -0.1 kcal/mol; for GTGGTCACGTGACTGA, 0.26 kcal/mol.
For ATTCGCACGTGTGGGG the value was -0.13 kcal/mol; for ATGTTCACGTGCGGTT, 0.23 kcal/mol.
As to TTGTGCACGTGCGGTG, the “relative binding free energy” value was -0.13 kcal/mol.
For AGATGCACGTGGGTAG the value was -0.17 kcal/mol; for TTATTCACGTGGGTGA, 0.27 kcal/mol; for TATTTCACGTGGCCGT, 0.36 kcal/mol.
For ATAGTCACGTGGGGAA the value was -0.03 kcal/mol; for GCATTCACGTGGATTG, 0.19 kcal/mol; for ATTCACACGTGATATT, 0.32 kcal/mol.
For TTGGACACGTGTGCTG, the “relative binding free energy” value worked out at 0.01 kcal/mol.
Next, TGTGACACGTGTGATT: 0.18 kcal/mol; TAGATCACGTGAGGAA: 0.38 kcal/mol; GGGACCACGTGTGGTT: 0.11 kcal/mol.
Take TATCTCACGTGCGTTA: the “relative binding free energy” value worked out at 0.34 kcal/mol.
Take TTAGACACGTGTGGAA: the “relative binding free energy” value was 0.17 kcal/mol.
Next, AGTAGCACGTGGTGGA: -0.11 kcal/mol; TGACTCACGTGTTGGC: 0.31 kcal/mol; CGGTTCACGTGTGTGC: 0.18 kcal/mol.
CATCACACGTGGGGGT: the “relative binding free energy” value is -0.07 kcal/mol.
Next, TTAGCCACGTGATATG: 0.15 kcal/mol; ATCCTCACGTGGGGGG: 0.04 kcal/mol; AAGATCACGTGTTGGG: 0.29 kcal/mol.
Next, TTCAGCACGTGTTGGA: -0.12 kcal/mol; TAGAGCACGTGGCCGG: -0.15 kcal/mol.
Next, GTAGTCACGTGTGAGC: 0.27 kcal/mol; AATGACACGTGTAATT: 0.25 kcal/mol; ATATTCACGTGCATAG: 0.23 kcal/mol.
For TTTGTCACGTGAGCTT, the “relative binding free energy” value was found to be 0.24 kcal/mol.
Consider TATTGCACGTGGTCTC, for which the “relative binding free energy” value is -0.04 kcal/mol.
Next, TGGCTCACGTGTGTGG: 0.39 kcal/mol; GTATGCACGTGGCGAT: -0.15 kcal/mol; TTAAACACGTGGGCGG: -0.07 kcal/mol.
Next, TATGTCACGTGTGTTG: 0.13 kcal/mol; GCTATCACGTGATGGT: 0.17 kcal/mol; AGTAACACGTGGGGAT: -0.22 kcal/mol.
For AAAAGCACGTGGCGTG the value was -0.11 kcal/mol.
Turning to ATGCTCACGTGTGCGT, the “relative binding free energy” value was 0.27 kcal/mol.
Next, TACGGCACGTGTGGGC: -0.06 kcal/mol; AGTTACACGTGGTTCT: -0.01 kcal/mol; AGGGCCACGTGGTGTG: -0.25 kcal/mol.
With GGTTACACGTGGATGT, the “relative binding free energy” value was determined as 0.18 kcal/mol.
Regarding TGAGTCACGTGGTGAG, the “relative binding free energy” value worked out at 0.03 kcal/mol.
Next, GTCATCACGTGGTGGG: 0.01 kcal/mol.
CGAAGCACGTGGGGGA: the “relative binding free energy” value is -0.29 kcal/mol.
On to AGATGCACGTGGTCTT, for which the “relative binding free energy” value was -0.07 kcal/mol.
For AGCTGCACGTGGATTG the value was -0.11 kcal/mol; for GGTCTCACGTGTATGT, 0.04 kcal/mol.
For ACAGGCACGTGAGGAG, the “relative binding free energy” value was 0.14 kcal/mol.
For TGCGGCACGTGACGGG the value was 0 kcal/mol.
Next, TTTTTCACGTGCGCAA: 0.45 kcal/mol; TAATCCACGTGGTAGG: -0.05 kcal/mol.
Next, TTGAACACGTGTTGGG: 0.03 kcal/mol; CGGGGCACGTGGAAAA: 0.18 kcal/mol; GTTATCACGTGTTACG: 0.06 kcal/mol.
ATTATCACGTGATATT: the “relative binding free energy” value came out at 0.18 kcal/mol.
Next, GTGAGCACGTGTTTGT: -0.06 kcal/mol; GGGTGCACGTGAAGGC: 0.34 kcal/mol.
As for TAAAGCACGTGTGCGT, the “relative binding free energy” value was -0.13 kcal/mol.
For GGAATCACGTGCGTTT the value was 0.17 kcal/mol.
Next, GGACACACGTGTGGTG: 0.06 kcal/mol; AATTACACGTGGAGTA: 0 kcal/mol.
For GTAAGCACGTGGGTCT the value was -0.1 kcal/mol; for TTATTCACGTGATCTA, 0.26 kcal/mol.
Consider AGGAGCACGTGCGGAG, for which the “relative binding free energy” value was -0.13 kcal/mol.
As for TGCGACACGTGTGTTA, the “relative binding free energy” value stood at 0 kcal/mol.
As for CGGATCACGTGTTGGG, the “relative binding free energy” value came out at 0.16 kcal/mol.

Source of the values: the BET-seq Pho4 binding data (Le et al. 2018).
